Experimental data as given in patent US11576897B2, “Therapeutic agent for non-motor symptoms associated with Parkinson's disease” (priority 2017, dated 2023).

What follows are compounds tested against human 5-HT2C receptor (Homo sapiens (Human), UniProt P28335) (assay: not given). Conditions: read-out: 5-HT2C receptor binding inhibition constant Ki; [3H]-mesulergine, h-5-HT2C/CHO cell membrane.
UniProt P28335, sequence (P28335 whole entry, looked up): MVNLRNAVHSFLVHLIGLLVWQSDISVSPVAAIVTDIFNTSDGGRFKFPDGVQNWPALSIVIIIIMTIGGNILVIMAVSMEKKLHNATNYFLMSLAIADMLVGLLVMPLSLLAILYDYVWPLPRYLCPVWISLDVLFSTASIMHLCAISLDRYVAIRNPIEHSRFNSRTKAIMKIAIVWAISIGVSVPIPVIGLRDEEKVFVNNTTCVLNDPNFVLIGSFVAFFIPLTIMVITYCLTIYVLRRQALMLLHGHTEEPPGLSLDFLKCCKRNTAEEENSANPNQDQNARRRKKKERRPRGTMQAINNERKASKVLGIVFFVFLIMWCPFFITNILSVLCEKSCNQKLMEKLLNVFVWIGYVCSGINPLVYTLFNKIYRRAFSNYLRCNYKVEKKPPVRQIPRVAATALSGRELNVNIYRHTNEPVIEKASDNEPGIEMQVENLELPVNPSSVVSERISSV

Compound	Ki [nM]
CNCc1cc(OCc2ccccc2C)n(C(C)C2CCCCC2)n1 (centres unmarked) [Example 298, 1-{1-(1-cyclohexylethyl)-5-[(2-methylbenzyl)oxy]-1H-pyrazol-3-yl}-N-methylmethanamine]	6.8
CNCc1cc(OCc2ccc(F)cc2Cl)n(C(C)C2CCCCC2)n1 (centres unmarked) [Example 301, 1-{5-[(2-chloro-4-fluorobenzyl)oxy]-1-(1-cyclohexylethyl)-1H-pyrazol-3-yl}-N-methylmethanamine]	4.6
CNCc1cc(OCc2ccc(F)cc2C)n(C(C)C2CCCCC2)n1 (centres unmarked) [Example 302, 1-{1-(1-cyclohexylethyl)-5-[(4-fluoro-2-methylbenzyl)oxy]-1H-pyrazol-3-yl}-N-methylmethanamine]	5.5
CNCc1cc(OCc2cc(F)ccc2F)n(C(C)C2CCCCC2)n1 (centres unmarked) [Example 303, 1-{1-(1-cyclohexylethyl)-5-[(2,5-difluorobenzyl)oxy]-1H-pyrazol-3-yl}-N-methylmethanamine]	4.7
CNCc1cc(OCc2ccc(F)cc2C)n(CC2CCCCO2)n1 (centres unmarked) [Example 108, 1-{5-[(4-fluoro-2-methylbenzyl)oxy]-1-(tetrahydro-2H-pyran-2-ylmethyl)-1H-pyrazolo-3-yl}-N-methylmethanamine]	18
CNCc1cc(OCc2ccccc2F)n(C(C)C2CCCCC2)n1 (centres unmarked) [Example 293, 1-{1-(1-cyclohexylethyl)-5-[(2-fluorobenzyl)oxy]-1H-pyrazol-3-yl}-N-methylmethanamine]	6.4
CNCc1cc(OCc2cc(C)ccc2F)n(C(C)C2CCCCC2)n1 (centres unmarked) [Example 305, 1-{1-(1-cyclohexylethyl)-5-[(2-fluoro-5-methylbenzyl)oxy]-1H-pyrazol-3-yl}-N-methylmethanamine]	3.7
CNCc1cc(OCc2ccccc2F)n(CC2CCCCC2)n1 [Example 20, 1-{1-(cyclohexylmethyl)-5-[(2-fluorobenzyl)oxy]-1H-pyrazol-3-yl}-N-methylmethanamine]	9
CNCc1cc(OCc2cc(Cl)ccc2F)n(C(C)C2CCCCC2)n1 (centres unmarked) [Example 304, 1-{5-[(5-chloro-2-fluorobenzyl)oxy]-1-(1-cyclohexylethyl)-1H-pyrazol-3-yl}-N-methylmethanamine]	2
CNCc1cc(OCc2ccc(F)cc2F)n(C(C)C2CCCCC2)n1 (centres unmarked) [Example 300, 1-{1-(1-cyclohexylethyl)-5-[(2,4-difluorobenzyl)oxy]-1H-pyrazol-3-yl}-N-methylmethanamine]	3.3
CNCc1cc(OCc2cc(F)ccc2F)n(CC2CC3CCC2C3)n1 (centres unmarked) [Example 117, 1-{1-(bicyclo[2.2.1]hept-2-ylmethyl)-5-[(2,5-difluorobenzyl)oxy]-1H-pyrazol-3-yl}-N-methylmethanamine]	3.8
CNCc1cc(OCc2ccccc2C#N)n(CC2CCCC2)n1 [Example 162, 2-[({1-(cyclopentylmethyl)-3-[(methylamino)methyl]-1H-pyrazol-5-yl}oxy)methyl]benzonitrile]	14
CNCc1cc(OCc2cc(F)ccc2F)n(Cc2ccc(Cl)cc2)n1 [Example 224, 1-{1-(4-chlorobenzyl)-5-[(2,5-difluorobenzyl)oxy]-1H-pyrazol-3-yl}-N-methylmethanamine]	6.6
CNCc1cc(OCc2cc(Cl)ccc2F)n(CC2CC3CCC2C3)n1 (centres unmarked) [Example 118, 1-{1-(bicyclo[2.2.1]hept-2-ylmethyl)-5-[(5-chloro-2-fluorobenzyl)oxy]-1H-pyrazol-3-yl}-N-methylmethanamine]	2.1
CNCc1cc(OCc2ccc(F)cc2)n(C(C)C2CCCCC2)n1 (centres unmarked) [Example 295, 1-{1-(1-cyclohexylethyl)-5-[(4-fluorobenzyl)oxy]-1H-pyrazol-3-yl}-N-methylmethanamine]	2.2
CNCc1cc(OCc2cc(F)ccc2F)n(CC2(F)CCCCC2)n1 [Example 127, 1-{5-[(2,5-difluorobenzyl)oxy]-1-[(1-fluorocyclohexyl)methyl]-1H-pyrazol-3-yl}-N-methylmethanamine]	7
CNCc1cc(OCc2cc(F)ccc2F)n(CC2CCCC2)n1.Cl [Example 147, 1-{1-(cyclopentylmethyl)-5-[(2,5-difluorobenzyl)oxy]-1H-pyrazol-3-yl}-N-methylmethanamine]	4.3
CNCc1cc(OCc2ccc(F)cc2Cl)n(CC2CCCCC2)n1 [Example 30, 1-{5-[(2-chloro-4-fluorobenzyl)oxy]-1-(cyclohexylmethyl)-1H-pyrazol-3-yl}-N-methylmethanamine]	4.8
CNCc1cc(OCc2ccccc2)n(CC2(C)CCCCC2)n1 [Example 331, 1-{5-(benzyloxy)-1-[(1-methylcyclohexyl)methyl]-1H-pyrazol-3-yl}-N-methylmethanamine]	5.9
CNCc1cc(OCc2cc(F)ccc2Cl)n(CC2CCCCC2)n1 [Example 37, 1-{5-[(2-chloro-5-fluorobenzyl)oxy]-1-(cyclohexylmethyl)-1H-pyrazol-3-yl}-N-methylmethanamine]	9.2
CNCc1nn(CC2CCCCC2)c(OCc2cc(F)ccc2F)c1F [Example 351]	43
CNCc1cc(OCc2ccccc2)n(C(C)C2CCCCC2)n1 (centres unmarked) [Example 292, 1-[5-(benzyloxy)-1-(1-cyclohexylethyl)-1H-pyrazol-3-yl]-N-methylmethanamine]	3.8
CNCc1cc(OCc2cc(Cl)ccc2Cl)n(CC2CCCCC2)n1 [Example 38, 1-{1-(cyclohexylmethyl)-5-[(2,5-dichlorobenzyl)oxy]-1H-pyrazol-3-yl}-N-methylmethanamine]	6.2
CNCc1cc(OCc2cc(Cl)ccc2F)n(C(C)C2CCCC2)n1 (centres unmarked) [Example 291, 1-{5-[(5-chloro-2-fluorobenzyl)oxy]-1-(1-cyclopentylethyl)-1H-pyrazol-3-yl}-N-methylmethanamine]	4.1
CNCc1cc(OCc2cc(F)ccc2F)n(CC2CCC(F)(F)CC2)n1 [Example 124, 1-{5-[(2,5-difluorobenzyl)oxy]-1-[(4,4-difluorocyclohexyl)methyl]-1H-pyrazol-3-yl}-N-methylmethanamine]	16
CNCc1cc(OCc2cccc(Cl)c2)n(CC2OC3CCC2CC3)n1 (centres unmarked) [Example 508, 1-{5-[(3-chlorobenzyl)oxy]-1-(2-oxabicyclo[2.2.2]oct-3-ylmethyl)-1H-pyrazol-3-yl}-N-methylmethanamine]	7.7
CNCc1cc(OCc2cccc(C)c2)n(C(C)C2CCCCC2)n1 (centres unmarked) [Example 299, 1-{1-(1-cyclohexylethyl)-5-[(3-methylbenzyl)oxy]-1H-pyrazol-3-yl}-N-methylmethanamine]	6.8
CNCc1cc(OCc2ccccc2Cl)n(CC2CCCC2)n1 [Example 138, 1-{5-[(2-chlorobenzyl)oxy]-1-(cyclopentylmethyl)-1H-pyrazol-3-yl}-N-methylmethanamine]	9.1

What follows are compounds tested against human D2L receptor (Homo sapiens (Human), UniProt P14416) (assay: Dopamine D2L receptor binding test). Conditions: read-out: D2L receptor IC50 value; [3H]-spiperone, human D2L receptor-expressed CHO cell membrane.
UniProt P14416, sequence (P14416 whole entry): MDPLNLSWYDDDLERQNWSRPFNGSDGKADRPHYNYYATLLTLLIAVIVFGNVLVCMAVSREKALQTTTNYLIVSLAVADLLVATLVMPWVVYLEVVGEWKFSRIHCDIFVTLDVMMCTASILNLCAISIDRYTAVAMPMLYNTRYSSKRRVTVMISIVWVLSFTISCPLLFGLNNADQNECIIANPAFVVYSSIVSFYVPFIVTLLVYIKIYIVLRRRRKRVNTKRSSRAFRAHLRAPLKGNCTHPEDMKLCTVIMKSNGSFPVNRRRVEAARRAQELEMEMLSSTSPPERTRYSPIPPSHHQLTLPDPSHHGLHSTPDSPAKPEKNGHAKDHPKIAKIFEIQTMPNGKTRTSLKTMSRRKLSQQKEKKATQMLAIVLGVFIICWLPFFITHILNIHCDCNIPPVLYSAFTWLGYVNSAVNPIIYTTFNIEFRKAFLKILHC

Compound	IC50 [nM]
CC(C)(C)CCn1nc(CN)cc1OCc1cc(F)ccc1F [Example 485]	> 1000
